The text below walks through data of PubChem BioAssay AID488969 (Vanderbilt High Throughput Screening Facility, 2010).

Values joined by “and” are separate entries in the source; they are usually repeats but may differ in a detail not shown here. Equal values may be shown once. The full ranking holds about 110,000 compounds; the median of “z-score” is about -0.1, and the highest 2% start at about 2. This is one part of the list.

The experiment addresses Metabotropic glutamate receptor 8 (Rattus norvegicus) (UniProt P70579). Briefly: mGluR8 Gi/Go-coupled signaling modulation – cell-based, rat, thallium flux, HTS, primary screen (AID 488969). As to conditions: HEK293 rat mGluR8, GIRK (G protein-gated inwardly rectifying potassium channel) thallium flux, FluoZin2; at 10 µM; stronger effect = higher value; submaximal glutamate (EC20) added with thallium.
Sequence of UniProt P70579 (P70579 whole entry, looked up): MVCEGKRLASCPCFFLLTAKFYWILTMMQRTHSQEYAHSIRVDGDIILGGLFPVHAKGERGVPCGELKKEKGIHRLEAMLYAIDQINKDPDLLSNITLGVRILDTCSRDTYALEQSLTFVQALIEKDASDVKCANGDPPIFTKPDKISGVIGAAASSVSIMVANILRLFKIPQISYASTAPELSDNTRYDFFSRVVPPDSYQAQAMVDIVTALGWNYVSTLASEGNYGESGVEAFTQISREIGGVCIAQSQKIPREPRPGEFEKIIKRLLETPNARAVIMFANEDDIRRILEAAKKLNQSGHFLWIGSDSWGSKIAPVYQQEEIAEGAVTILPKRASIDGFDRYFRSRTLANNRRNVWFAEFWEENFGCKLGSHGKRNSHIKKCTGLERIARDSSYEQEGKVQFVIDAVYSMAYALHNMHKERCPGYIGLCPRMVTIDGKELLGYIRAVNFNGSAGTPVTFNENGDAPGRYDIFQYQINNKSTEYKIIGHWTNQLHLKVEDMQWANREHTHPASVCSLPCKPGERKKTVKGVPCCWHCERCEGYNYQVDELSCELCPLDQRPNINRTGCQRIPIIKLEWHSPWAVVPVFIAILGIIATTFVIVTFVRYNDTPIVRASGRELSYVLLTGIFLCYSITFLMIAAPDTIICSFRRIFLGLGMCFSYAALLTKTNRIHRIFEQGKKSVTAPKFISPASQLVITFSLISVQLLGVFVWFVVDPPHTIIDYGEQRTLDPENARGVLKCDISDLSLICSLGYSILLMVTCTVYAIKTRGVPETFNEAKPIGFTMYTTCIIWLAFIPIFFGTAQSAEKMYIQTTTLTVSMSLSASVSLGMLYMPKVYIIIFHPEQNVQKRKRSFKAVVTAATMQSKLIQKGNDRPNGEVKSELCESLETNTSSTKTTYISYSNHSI
The molecule `CCn1c(=O)c(C(C)=O)nc2ccccc21` returned a z-score of -0.0198.

For the molecule `O=C(CN1C(=O)NC2(CCCC2)C1=O)Nc1nc(-c2ccc(F)cc2)cs1`, the z-score is -0.141.

As to `OC1(c2cccc(C(F)(F)F)c2)CCNCC1`, the z-score was -0.227.

Consider `COC(=O)C(C)N1C(=O)S/C(=C/c2cc(C)n(-c3ccccn3)c2C)C1=O` (centres undefined), for which the z-score stood at 1.27.

`Cn1nc(CC(=O)NC2CCCCCCCCCCC2)c2ccccc2c1=O`: the z-score is 0.00205.

Molecule `COCCCNC(=O)Cn1nnc(-c2ccc(NC(=O)c3ccccc3F)cc2)n1` yielded a z-score of -0.635.

In the case of `Nc1cc(C(=O)c2ccccc2)ccc1N1CCOCC1`, the z-score is -0.0635.

The molecule `CC(=O)OCC(=O)NCc1ccc2c(c1)OCO2` registered a z-score of 0.165.

`OCC1(C2=NOC(O)(C(F)(F)F)C2)CCCCC1` (centres undefined) displayed a z-score of 0.325.

`COc1ccc(Sc2nnc(Cc3ccccc3)c3ccccc23)cc1` gave a z-score of -0.186.

`Cc1c(C(=O)OCCOc2ccccc2)[nH]c2c1C(=O)CCC2` displayed a z-score of 0.00319.

Turning to `O=C(NCCCCC(NC(=O)c1ccc([N+](=O)[O-])cc1)C(=O)O)c1ccc([N+](=O)[O-])cc1` (centres undefined), the z-score is -0.171.

On to `O=c1c2c(nc3nc(COc4ccccc4)[nH]n13)CCC2`, for which the z-score was -1.15.

For the molecule `Cc1c(C(=O)O)oc2c1C(O)CC(C)(C)C2` (centres undefined), the z-score was 1.41 and 0.851.

`COc1ccc(C(=O)CCC(=O)O)c(C)c1`: the z-score stood at 0.03.

Molecule `Cc1ccc(S(=O)(=O)N2CCCN(S(=O)(=O)c3ccc4ccccc4c3)CC2)cc1` returned a z-score of -0.159.

On to `CC(C)c1ccc(C2CC(=O)N3CN(C)CSC3=C2C#N)cc1` (centres undefined), for which the z-score was -0.145.

With `Cc1nn(Cc2ccccc2Cl)c(C)c1NC(=O)C1C2CCC(O2)C1C(=O)O` (centres undefined), the z-score is -0.217.

Take `CC(C)Cc1nnc(NC(=O)CS(=O)(=O)Cc2ccccc2)s1`: the z-score was -0.0843.

`O=C1CN(C(=O)CC2c3ccccc3-c3ccccc32)CC(=O)N1` gave a z-score of 0.0971.

`CCc1cccc2c(C(=O)COC(=O)/C=C/c3ccc(O)c(OC)c3)c[nH]c12` showed a z-score of 0.418.

`Cc1cccc(OCC(=O)Nc2ccc(C(=O)NCc3cccnc3)cc2)c1`: the z-score is -0.0795.

Molecule `Cc1ccc(NC(=S)NNC(=O)c2c([N+](=O)[O-])c(C)nn2C)cc1` came in with a z-score of -0.131.

`Cc1ccc(C(=O)N/C(=C\c2ccc(-c3ccc([N+](=O)[O-])cc3)o2)C(=O)NC2CCS(=O)(=O)C2)cc1` (centres undefined) displayed a z-score of -1.56.

`CCn1nc(C(=O)OCC(=O)Nc2nc(-c3ccc(OC)cc3)cs2)c2ccccc2c1=O` showed a z-score of -0.337.

Consider `C=C(C)c1cccc(C(C)(C)NC(=O)NCc2ccc(OC)c(OC)c2)c1`, for which the z-score is -0.0899.

Molecule `O=C1C2CC=C(Cl)CC2C(=O)N1CN(Cc1ccco1)CN1C(=O)C2CC=C(Cl)CC2C1=O` (centres undefined) had a z-score of 0.00833.

`CCOc1ccc(N2C(=O)c3cccnc3C2Nc2ccc(C)c(C)c2)cc1` (centres undefined) displayed a z-score of -0.171.

Regarding `C=CCn1cc(C(=O)OC)c(=O)c2cc(S(=O)(=O)N3CCC(C)CC3)ccc21`, the z-score is -0.336.

Take `O=C(COc1ccc(Cl)cc1)Nc1ccccc1C(=O)NCc1ccco1`: the z-score is -0.123.

`O=C(Nc1cccc(S(=O)(=O)N2CCCC2)c1)c1ccc2c(=O)n3c(nc2c1)CCCCC3` gave a z-score of -1.24.

For `CCCCOc1cccc(/C=N/NC(=O)c2csc(C)c2C)c1`, the z-score is -0.0133.

Take `Cc1ccccc1NC(=O)C1C2CCC(O2)C1C(=O)O` (centres undefined): the z-score stood at 0.0158.

As for `Cc1nnc(NC2CCCCC2)[nH]c1=O`, the z-score was 0.729.

On to `Cn1c(NCc2cccc(Br)c2)nc2ccccc21`, for which the z-score is -0.712.

In the case of `COc1ccccc1C(=O)Nc1cc(-c2nn3c(C)nnc3s2)ccc1C`, the z-score is -1.43.

In turn, `COc1ccc(N2C(=O)CC(N3CCC(O)(c4ccc(Cl)cc4)CC3)C2=O)cc1` (centres undefined) registered a z-score of -0.121.

`CC(=O)c1ccc(N2CCN(S(=O)(=O)c3cccc(S(=O)(=O)N4CCOCC4)c3)CC2)cc1` yielded a z-score of 0.167.

Consider `O=C(O)Cc1sc(-c2ccccc2)nc1-c1ccccc1`, for which the z-score is -0.192.

Turning to `CC(Sc1ccccc1)C(=O)Nc1ccc(S(=O)(=O)N2CCOCC2)cc1` (centres undefined), the z-score came out at 0.0953.

For the molecule `Nc1nnc(-c2ccccc2)s1`, the z-score is -0.337.

For the molecule `COc1ccc(-c2nn(CCC(=O)O)cc2/C=C2\SC(N)=NC2=O)cc1`, the z-score is -0.114.

Consider `O=C(CN1CCN(c2ccc(F)cc2)CC1)OCc1ccccc1`, for which the z-score was -0.253.

Molecule `CC(Sc1nnc(Cc2cccs2)n1C1CCCCC1)C(N)=O` (centres undefined) came in with a z-score of -0.262.

In turn, `O=C(Nc1cccc(-c2nc3ccccc3s2)c1)c1ccc2c(c1)OCO2` yielded a z-score of -0.76.

`CCOC(=O)c1c(C)cc(C)n2c1nc1ccccc12` showed a z-score of -0.141.

With `CCOC(=O)c1oc2c(O)c(O)ccc2c(=O)c1-c1nncn1-c1ccccc1`, the z-score was -0.05.

As for `O=C(N/N=C/c1cccc([N+](=O)[O-])c1)c1cccs1`, the z-score worked out at 0.379.

`Cc1cccc(-n2c(N)cc(=O)nc2SCC(=O)Nc2ccccc2)c1` returned a z-score of -0.48.

As to `c1ccc(CC2CCN(c3nc4ccccc4n4nnnc34)CC2)cc1`, the z-score is -0.147.

Regarding `Fc1ccccc1N1CCN(CC2CC3C=CC2C3)CC1` (centres undefined), the z-score is -0.343.

`Cc1ccc(OCC(O)CN2CC3(C)CC2CC(C)(C)C3)cc1` (centres undefined) gave a z-score of 0.105.

Regarding `Cc1ccc(-c2nc3ccc(NS(=O)(=O)c4ccccc4)cc3[nH]2)o1`, the z-score amounted to 1.31.

Molecule `CCN(CC)C(=O)CN(c1ccc2c(c1)OCO2)S(C)(=O)=O` yielded a z-score of 2.51.

Molecule `COC(=O)c1cccc(S(=O)(=O)N(Cc2ccco2)Cc2cc3ccc(OC)cc3[nH]c2=O)c1` registered a z-score of 0.782.

Molecule `CN(C)CCCOc1nc2c(c(=O)n(C)c(=O)n2C)n1C` had a z-score of 0.128.

In turn, `CC(C)OCCCNC(=O)c1cccs1` displayed a z-score of 0.37.

The molecule `COc1ccc(C(=O)/C(=C/c2cccs2)c2nc3ccccc3o2)cc1` showed a z-score of 0.351.

The molecule `Cc1ccc(Cn2nc(C)c(NC(=O)c3nn(C)cc3Cl)c2C)cc1` showed a z-score of 0.166.

Turning to `COc1cccc(-n2nnnc2SCC(=O)N2CCCc3ccccc32)c1`, the z-score was -0.666.

As for `CC(C)c1ccc(C(C(=O)NC(C)(C)C)N(C(=O)CNC(=O)c2ccco2)c2cccnc2)cc1` (centres undefined), the z-score is -0.299.

With `O=C(Cc1cccs1)N(Cc1ccco1)C1(C(=O)NC2CCCCC2)CCCCC1`, the z-score was determined as 1.89.

Molecule `O=C(NC1c2ccccc2-c2ccccc21)c1ccccc1` showed a z-score of -0.122.

`CS(=O)(=O)N(Cc1ccccc1)c1ccc(C(=O)NCC2CCCO2)cc1` (centres undefined) displayed a z-score of 0.431.

Turning to `Cc1cc(N2CCN(C)CC2)nc(N2CCOCC2)n1`, the z-score was 0.212.

`COc1ccc(C)cc1S(=O)(=O)N(CC(=O)Nc1ccc2c(c1)OCCO2)Cc1ccccc1` came in with a z-score of 1.58.

For the molecule `COc1ccc(Br)cc1-c1noc(-c2ccncc2)n1`, the z-score worked out at 0.0779.

With `CC(C)Cc1nc(SCC(=O)NCc2ccccc2)n[nH]1`, the z-score was -0.331.

`CCN(CC)c1ccc(NC(=O)CSc2nc3ccccc3c(=O)n2-c2cc(S(=O)(=O)N(C)C)ccc2C)cc1` registered a z-score of -0.0627.
